Reference: PubChem BioAssay (Tox21)
The source made the active and inactive calls. Unless noted, the call rests on the fitted dose curve; in most records, active means well fitted curve in the direction sought with a large enough effect in the repeat runs; inconclusive means weak or mixed curves; inactive means no such curve, though single readings can be large; an effect the other way counts as inactive or inconclusive.

Assays:
[1] = qHTS assay to identify small molecule antagonists of the glucocorticoid receptor (GR) signaling pathway - cell viability counter screen (AID 720693); details: GR-bla HeLa viability, CellTiter-Glo luminescence, 18 h, with 5 nM dexamethasone present; viability change, negative = cytotoxic: at 58.5 µM (top of the series) unless noted; further: nearly all actives have a fitted effect of over 55% in size; further: potency means the concentration at half of the fitted maximal effect; on viability change, negative = cytotoxic: on the % scale 0 is the no-effect control and ±100 the full control effect
[2] = qHTS assay for identifying genotoxic compounds that show differential cytotoxicity against isogenic chicken DT40 cell lines with known DNA damage response pathways - wild type cell line (AID 743012); details: DT40 wild type chicken cells viability, CellTiter-Glo, 40 h; activity change, negative = cytotoxicity: at 68.4 µM (top of the series) unless noted; further: potency means the concentration at half of the fitted maximal effect; nearly all actives have a fitted effect of over 60% in size
Method in brief: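 Viability of DNA repair-proficient chicken DT40 cells was assessed by CellTiter-Glo luminescence following 40 h compound exposure at 37 C/5% CO2.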

[3] = qHTS assay for identifying genotoxic compounds that show differential cytotoxicity against isogenic chicken DT40 cell lines with known DNA damage response pathways - Rev3 mutant cell line (AID 743014); details: chicken DT40 Rev3-/- viability, CellTiter-Glo, 40 h; activity, negative = cytotoxicity: at 68.4 µM (top of the series); further: potency means the concentration at half of the fitted maximal effect; nearly all actives have a fitted effect of over 55% in size
[4] = biological target: Estrogen receptor (Homo sapiens) (UniProt P03372); experiment: qHTS assay to identify small molecule agonists of the estrogen receptor alpha (ER-alpha) signaling pathway using the BG1 cell line (AID 743079); details: BG1Luc4E2 cells, ERE-luciferase agonist, 22 h; activation: at 70.3 µM (top of the series) unless noted; further: potency means the concentration at half of the fitted maximal effect; nearly all actives have a fitted effect of over 20% in size
Chain of UniProt P03372 (P03372 whole entry, looked up): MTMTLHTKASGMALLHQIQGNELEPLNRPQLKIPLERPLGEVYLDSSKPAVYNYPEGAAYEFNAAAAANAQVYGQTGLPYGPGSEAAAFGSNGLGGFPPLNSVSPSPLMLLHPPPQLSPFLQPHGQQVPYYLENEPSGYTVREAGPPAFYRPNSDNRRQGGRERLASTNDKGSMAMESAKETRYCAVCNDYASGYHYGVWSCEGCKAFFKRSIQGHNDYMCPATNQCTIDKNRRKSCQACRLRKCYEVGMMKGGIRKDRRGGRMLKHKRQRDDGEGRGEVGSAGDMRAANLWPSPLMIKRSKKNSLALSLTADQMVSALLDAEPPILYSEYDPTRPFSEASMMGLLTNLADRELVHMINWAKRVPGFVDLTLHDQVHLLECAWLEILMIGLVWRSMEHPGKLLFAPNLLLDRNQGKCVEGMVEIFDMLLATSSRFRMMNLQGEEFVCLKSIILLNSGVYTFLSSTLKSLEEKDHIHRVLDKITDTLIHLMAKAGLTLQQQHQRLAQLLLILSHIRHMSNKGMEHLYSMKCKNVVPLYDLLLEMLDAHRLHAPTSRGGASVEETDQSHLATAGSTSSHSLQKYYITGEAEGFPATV

[5] = qHTS assay to identify small molecule antagonists of the estrogen receptor alpha (ER-alpha) signaling pathway using the BG1 cell line (AID 743080; calls by dose curve;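 further: BG1 cells stimulated with 17beta-estradiol alongside compound; nearly all actives have a fitted effect of over 25% in size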; further: potency means the concentration at half of the fitted maximal effect); details: BG1Luc4E2 ERE-luciferase antagonist mode, luminescence; activity change, negative = inhibition: at 70.3 µM (top of the series) unless noted
Method in brief: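 Readout is ONE-Glo luminescence, taken 30 min at room temperature after reagent addition, preceded by a CellTiter-Fluor viability read; BG1-Luc-4E2 cells had received compound and 17beta-estradiol for 21.5 h at 37 C.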

[6] = qHTS assay to identify small molecule antagonists of the thyroid receptor (TR) signaling pathway - cell viability counter screen (AID 743064); details: GH3.TRE-Luc viability, CellTiter-Fluor, 24 h; activity change, negative = cytotoxic: at 70.3 µM (top of the series) unless noted; further: potency means the concentration at half of the fitted maximal effect; nearly all actives have a fitted effect of over 50% in size
Method in brief: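 In-well cytotoxicity read by CellTiter-Fluor (30 min, 37 C) following 23.5 h exposure of GH3 cells bearing a TRE-luciferase sensor. Compounds were added alongside 1 nM (final) T3 to drive TR transactivation.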

[7] = biological target: Estrogen receptor (Homo sapiens) (UniProt P03372); experiment: qHTS assay to identify small molecule agonists of the estrogen receptor alpha (ER-alpha) signaling pathway (AID 743075; calls by dose curve;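 further: HEK293 GripTite cells with ER-alpha and UAS-driven beta-lactamase reporter; potency means the concentration at half of the fitted maximal effect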)
Aromatase (Homo sapiens) = Aromatase (Homo sapiens) (UniProt P11511); experiment: qHTS assay to identify aromatase inhibitors (AID 743083); details: MCF-7 aro ERE, testosterone-driven ERE luciferase, 24 h; activity, negative = inhibition: at 70.3 µM (top of the series); further: potency means the concentration at half of the fitted maximal effect; nearly all actives have a fitted effect of over 55% in size
Chain of UniProt P11511 (P11511 whole entry, looked up): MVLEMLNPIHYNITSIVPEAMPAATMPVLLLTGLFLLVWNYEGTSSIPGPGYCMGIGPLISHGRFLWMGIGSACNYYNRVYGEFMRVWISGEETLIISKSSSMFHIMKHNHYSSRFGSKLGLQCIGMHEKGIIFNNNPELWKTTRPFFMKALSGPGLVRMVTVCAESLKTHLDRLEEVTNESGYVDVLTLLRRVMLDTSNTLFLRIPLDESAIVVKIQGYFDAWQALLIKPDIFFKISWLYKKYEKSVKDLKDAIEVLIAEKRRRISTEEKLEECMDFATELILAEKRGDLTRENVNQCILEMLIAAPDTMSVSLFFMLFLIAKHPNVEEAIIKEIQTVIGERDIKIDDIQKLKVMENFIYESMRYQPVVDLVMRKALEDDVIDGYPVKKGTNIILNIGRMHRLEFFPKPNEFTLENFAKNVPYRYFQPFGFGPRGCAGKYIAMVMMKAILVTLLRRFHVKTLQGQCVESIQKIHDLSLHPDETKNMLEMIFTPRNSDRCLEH

[8] = qHTS assay to identify small molecule antagonists of the androgen receptor (AR) signaling pathway - cell viability counter screen (AID 743033; further: nearly all actives have a fitted effect of over 45% in size; further: potency means the concentration at half of the fitted maximal effect); details: AR-bla HEK293 viability, CellTiter-Glo luminescence, 16 h; activity change, negative = cytotoxicity: at 58.5 µM (top of the series) unless noted
[9] = qHTS assay to identify small molecule antagonists of the estrogen receptor alpha (ER-alpha) signaling pathway - cell viability counter screen (AID 743074; calls by dose curve;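 further: HEK293 cells carrying ER-alpha-UAS-bla reporter stimulated with 17beta-estradiol; potency means the concentration at half of the fitted maximal effect; nearly all actives have a fitted effect of over 45% in size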)
[10] = qHTS assay to identify small molecule antagonists of the estrogen receptor alpha (ER-alpha) signaling pathway using the BG1 cell line - cell viability counter screen (AID 743081); details: BG1Luc4E2 viability, CellTiter-Fluor, 22 h; activity change, negative = cytotoxicity: at 70.3 µM (top of the series) unless noted;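 further: compound given together with 17beta-estradiol as the ER stimulus; potency means the concentration at half of the fitted maximal effect; nearly all actives have a fitted effect of over 45% in size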
[11] = biological target: Androgen receptor (Homo sapiens) (UniProt P10275); experiment: qHTS assay to identify small molecule antagonists of the androgen receptor (AR) signaling pathway (AID 743035; active means well fitted inhibition curve with a large enough effect in the signal ratio in the repeat runs, not every such curve was filed as active; inconclusive means weak or mixed curves, or effect the other way; inactive means no such curve, though single readings can be large or run the other way; the % refers to the signal ratio; further: on the % scale 0 is the no-effect control and ±100 the full control effect); details: HEK293 AR-UAS-bla, R1881-stimulated, beta-lactamase FRET, 16 h; activity change, negative = inhibition: at 58.5 µM (top of the series) unless noted
Chain of UniProt P10275 (P10275 whole entry, looked up): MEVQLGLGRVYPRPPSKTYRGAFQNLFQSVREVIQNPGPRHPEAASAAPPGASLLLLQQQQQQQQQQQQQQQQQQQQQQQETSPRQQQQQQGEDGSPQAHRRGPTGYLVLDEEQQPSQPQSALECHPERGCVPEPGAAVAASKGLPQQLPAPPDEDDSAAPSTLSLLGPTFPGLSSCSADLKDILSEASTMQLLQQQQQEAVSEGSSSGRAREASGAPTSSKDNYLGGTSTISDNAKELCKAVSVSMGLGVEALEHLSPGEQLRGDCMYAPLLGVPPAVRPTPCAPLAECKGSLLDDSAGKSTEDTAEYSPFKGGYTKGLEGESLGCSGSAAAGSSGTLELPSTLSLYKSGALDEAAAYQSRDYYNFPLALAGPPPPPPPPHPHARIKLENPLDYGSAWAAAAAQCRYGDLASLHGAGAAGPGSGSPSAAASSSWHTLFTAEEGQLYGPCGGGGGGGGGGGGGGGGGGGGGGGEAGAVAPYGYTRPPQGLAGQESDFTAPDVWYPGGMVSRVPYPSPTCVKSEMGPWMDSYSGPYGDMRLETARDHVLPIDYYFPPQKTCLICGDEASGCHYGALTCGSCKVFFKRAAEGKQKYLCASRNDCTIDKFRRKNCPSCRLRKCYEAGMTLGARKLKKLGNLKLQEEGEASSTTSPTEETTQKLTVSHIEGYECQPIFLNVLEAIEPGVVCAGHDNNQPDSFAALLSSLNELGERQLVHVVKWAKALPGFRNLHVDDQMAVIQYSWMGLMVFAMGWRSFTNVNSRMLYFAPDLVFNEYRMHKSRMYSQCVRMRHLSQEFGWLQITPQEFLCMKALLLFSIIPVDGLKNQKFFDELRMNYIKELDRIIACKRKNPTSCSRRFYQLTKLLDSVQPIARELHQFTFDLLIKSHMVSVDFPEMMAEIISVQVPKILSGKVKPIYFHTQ
Method in brief: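 Reporter HEK293 cells were exposed to compounds and R1881 overnight (16 h, 37C); beta-lactamase activity was then quantified by FRET fluorescence.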

[12] = biological target: Androgen receptor (Homo sapiens) (UniProt P10275); experiment: qHTS assay to identify small molecule agonists of the androgen receptor (AR) signaling pathway (AID 743036; active means well fitted activation curve with a large enough effect in the signal ratio in the repeat runs, with a control signal flat, not every such curve was filed as active; inconclusive means weak or mixed curves, or effect the other way; inactive means no such curve, though single readings can be large or run the other way; the % refers to the signal ratio; further: on the % scale 0 is the no-effect control and ±100 the full control effect); details: HEK293 AR-UAS-bla GripTite, beta-lactamase FRET ratio, 16 h; activation: at 62.4 µM (top of the series) unless noted
Method in brief: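 Activation was read as beta-lactamase FRET signal from LiveBLAzer B/G substrate, added for 2 h at room temperature. Before that, GeneBLAzer AR-UAS-bla GripTite (HEK293) cells had 16 h compound exposure at 37C.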

[13] = qHTS assay to identify small molecule antagonists of the androgen receptor (AR) signaling pathway using the MDA cell line - cell viability counter screen (AID 743041; further: potency means the concentration at half of the fitted maximal effect; nearly all actives have a fitted effect of over 45% in size); details: MDA-kb2 viability, CellTiter-Fluor, 16 h, cells co-treated with R1881 androgen agonist; viability change, negative = cytotoxic: at 70.3 µM (top of the series) unless noted
Method in brief: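 Cytotoxicity counter screen: MDA-kb2 AR-luc cells, compound + R1881, 16 h, 37C, 0% CO2; CellTiter-Fluor added at 15.5 h, fluorescence read after 30 min.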

[14] = biological target: Androgen receptor (Homo sapiens) (UniProt P10275); experiment: qHTS assay to identify small molecule antagonists of the androgen receptor (AR) signaling pathway using the MDA cell line (AID 743042; further: potency means the concentration at half of the fitted maximal effect; nearly all actives have a fitted effect of over 55% in size)
Method in brief: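 MDA-kb2 breast carcinoma cells carrying MMTV-luciferase (AR/GR responsive) were co-treated with compounds and the agonist R1881 for 16 h at 37C. Inhibition read as ONE-Glo luminescence; CellTiter-Fluor fluorescence measured in parallel for cytotoxicity.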

[15] = test system: thyroid hormone receptor (rat, GH3 cells); experiment: qHTS assay to identify small molecule agonists of the thyroid receptor (TR) signaling pathway (AID 743066; calls by dose curve; further: on the % scale 0 is the no-effect control and ±100 the full control effect); details: GH3.TRE-Luc cells, TR agonist luciferase, 24 h; activation: at 83.9 µM (top of the series) unless noted
[16] = biological target: Estrogen receptor (Homo sapiens) (UniProt P03372); experiment: qHTS assay to identify small molecule antagonists of the estrogen receptor alpha (ER-alpha) signaling pathway (AID 743069; active means well fitted curve in the direction sought with a large enough effect in the signal ratio in the repeat runs, not every such curve was filed as active; inconclusive means weak or mixed curves, or effect the other way; inactive means no such curve, though single readings can be large or run the other way; the % refers to the signal ratio; further: potency means the concentration at half of the fitted maximal effect); details: HEK293 ER-alpha-UAS-bla, beta-lactamase ratio, antagonist mode; activity, negative = inhibition: at 69.4 µM (top of the series) unless noted
Method in brief: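 Beta-lactamase FRET fluorescence is read after 2 hr at room temperature with LiveBLAzer B/G substrate. Before that, ER-alpha-bla HEK293 cells sit 4 hr after plating, then receive compound plus 17beta-estradiol and incubate 18 hr at 37C.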
Tags describe the fitted curve by direction and shape or compound fluorescence and quenching.

ONc1ccccc1
active: Potency [4] 60.5 µM
inconclusive: Potency [1] 0.217 µM [rising, single point] | Potency [2] 76.2 µM [single point] | Potency [3] 76.2 µM [cytotoxic] | Potency [5] 34 µM [rising, partial curve]

Oc1ccc(Oc2ccccc2)cc1
active: Potency [2] 20.6 µM | Potency [3] 23.1 µM | Potency [6] 41 µM | Potency [7] 0.0736 µM [inconclusive] | Potency [4] 7.3 µM
inconclusive: viability change, negative = cytotoxic [1] 13.1% | activity change, negative = inhibition [5] 11.9% | Potency (Aromatase (Homo sapiens)) 58 µM [inhibitor]

[Cl][Au]([Cl])[Cl]
active: Potency [2] 13.7 µM | Potency [8] 21.9 µM | Potency [6] 3.86 µM | Potency (Aromatase (Homo sapiens)) 24.3 µM
inconclusive: Potency [1] 61.6 µM [cytotoxic, single point] | Potency [9] 54.9 µM [cytotoxic, single point] | Potency [10] 68.6 µM [cytotoxic, single point]

C=C1C(=C/C=C2\CCC[C@]3(C)[C@@H]([C@H](C)/C=C/[C@@H](O)C4CC4)CC[C@@H]23)C[C@@H](O)C[C@@H]1O
inconclusive: Potency [1] 26.8 µM [cytotoxic, single point] | activity change, negative = inhibition [11] -61.5% | Potency [13] 33.5 µM [cytotoxic, partial curve, poor fit] | Potency [6] 33.5 µM [cytotoxic, single point] | activation [15] -9.33% [phenotype inactive] | Potency [5] 3.76 µM [falling, partial curve, poor fit]
active: Potency [2] 11.9 µM | Potency [14] 26.6 µM | Potency [16] 21.3 µM [inconclusive]
inactive: Potency [8] | Potency [12]
